This passage reports binding results from publication PMC12429063, “The BUB1 and BUBR1 paralogs scaffold the kinetochore fibrous corona” (Science Advances, 2025).

Protein sequences, listed by entry. Tags and fused reporters are not part of them. Lines headed by an entry give the natural chain unless they say otherwise; changes in a name come on top.
UniProt O60566: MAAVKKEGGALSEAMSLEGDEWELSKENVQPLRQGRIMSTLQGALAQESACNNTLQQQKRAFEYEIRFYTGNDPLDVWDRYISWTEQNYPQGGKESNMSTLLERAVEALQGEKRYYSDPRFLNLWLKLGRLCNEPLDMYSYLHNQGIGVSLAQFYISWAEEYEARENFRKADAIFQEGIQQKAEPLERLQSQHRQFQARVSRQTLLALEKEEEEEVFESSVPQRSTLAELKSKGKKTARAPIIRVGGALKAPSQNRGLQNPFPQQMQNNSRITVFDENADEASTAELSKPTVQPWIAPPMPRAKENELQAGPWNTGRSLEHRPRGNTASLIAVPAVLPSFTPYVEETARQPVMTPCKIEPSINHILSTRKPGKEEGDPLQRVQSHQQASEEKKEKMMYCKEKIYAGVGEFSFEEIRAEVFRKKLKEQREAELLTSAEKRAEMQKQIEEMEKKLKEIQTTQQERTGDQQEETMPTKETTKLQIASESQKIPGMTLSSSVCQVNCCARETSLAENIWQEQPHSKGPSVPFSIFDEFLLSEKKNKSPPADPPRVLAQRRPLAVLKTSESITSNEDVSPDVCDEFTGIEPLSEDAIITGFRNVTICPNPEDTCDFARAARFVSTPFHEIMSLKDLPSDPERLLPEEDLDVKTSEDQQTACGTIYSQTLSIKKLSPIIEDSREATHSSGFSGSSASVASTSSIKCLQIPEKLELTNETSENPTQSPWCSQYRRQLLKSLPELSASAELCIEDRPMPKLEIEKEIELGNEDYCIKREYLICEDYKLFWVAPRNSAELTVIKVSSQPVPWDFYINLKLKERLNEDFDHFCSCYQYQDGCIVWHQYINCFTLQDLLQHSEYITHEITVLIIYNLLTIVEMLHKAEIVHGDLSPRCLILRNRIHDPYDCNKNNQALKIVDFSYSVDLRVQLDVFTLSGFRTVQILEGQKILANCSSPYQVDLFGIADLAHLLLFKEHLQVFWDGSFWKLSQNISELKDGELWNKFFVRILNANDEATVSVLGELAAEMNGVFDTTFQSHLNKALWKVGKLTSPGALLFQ
UniProt P50748: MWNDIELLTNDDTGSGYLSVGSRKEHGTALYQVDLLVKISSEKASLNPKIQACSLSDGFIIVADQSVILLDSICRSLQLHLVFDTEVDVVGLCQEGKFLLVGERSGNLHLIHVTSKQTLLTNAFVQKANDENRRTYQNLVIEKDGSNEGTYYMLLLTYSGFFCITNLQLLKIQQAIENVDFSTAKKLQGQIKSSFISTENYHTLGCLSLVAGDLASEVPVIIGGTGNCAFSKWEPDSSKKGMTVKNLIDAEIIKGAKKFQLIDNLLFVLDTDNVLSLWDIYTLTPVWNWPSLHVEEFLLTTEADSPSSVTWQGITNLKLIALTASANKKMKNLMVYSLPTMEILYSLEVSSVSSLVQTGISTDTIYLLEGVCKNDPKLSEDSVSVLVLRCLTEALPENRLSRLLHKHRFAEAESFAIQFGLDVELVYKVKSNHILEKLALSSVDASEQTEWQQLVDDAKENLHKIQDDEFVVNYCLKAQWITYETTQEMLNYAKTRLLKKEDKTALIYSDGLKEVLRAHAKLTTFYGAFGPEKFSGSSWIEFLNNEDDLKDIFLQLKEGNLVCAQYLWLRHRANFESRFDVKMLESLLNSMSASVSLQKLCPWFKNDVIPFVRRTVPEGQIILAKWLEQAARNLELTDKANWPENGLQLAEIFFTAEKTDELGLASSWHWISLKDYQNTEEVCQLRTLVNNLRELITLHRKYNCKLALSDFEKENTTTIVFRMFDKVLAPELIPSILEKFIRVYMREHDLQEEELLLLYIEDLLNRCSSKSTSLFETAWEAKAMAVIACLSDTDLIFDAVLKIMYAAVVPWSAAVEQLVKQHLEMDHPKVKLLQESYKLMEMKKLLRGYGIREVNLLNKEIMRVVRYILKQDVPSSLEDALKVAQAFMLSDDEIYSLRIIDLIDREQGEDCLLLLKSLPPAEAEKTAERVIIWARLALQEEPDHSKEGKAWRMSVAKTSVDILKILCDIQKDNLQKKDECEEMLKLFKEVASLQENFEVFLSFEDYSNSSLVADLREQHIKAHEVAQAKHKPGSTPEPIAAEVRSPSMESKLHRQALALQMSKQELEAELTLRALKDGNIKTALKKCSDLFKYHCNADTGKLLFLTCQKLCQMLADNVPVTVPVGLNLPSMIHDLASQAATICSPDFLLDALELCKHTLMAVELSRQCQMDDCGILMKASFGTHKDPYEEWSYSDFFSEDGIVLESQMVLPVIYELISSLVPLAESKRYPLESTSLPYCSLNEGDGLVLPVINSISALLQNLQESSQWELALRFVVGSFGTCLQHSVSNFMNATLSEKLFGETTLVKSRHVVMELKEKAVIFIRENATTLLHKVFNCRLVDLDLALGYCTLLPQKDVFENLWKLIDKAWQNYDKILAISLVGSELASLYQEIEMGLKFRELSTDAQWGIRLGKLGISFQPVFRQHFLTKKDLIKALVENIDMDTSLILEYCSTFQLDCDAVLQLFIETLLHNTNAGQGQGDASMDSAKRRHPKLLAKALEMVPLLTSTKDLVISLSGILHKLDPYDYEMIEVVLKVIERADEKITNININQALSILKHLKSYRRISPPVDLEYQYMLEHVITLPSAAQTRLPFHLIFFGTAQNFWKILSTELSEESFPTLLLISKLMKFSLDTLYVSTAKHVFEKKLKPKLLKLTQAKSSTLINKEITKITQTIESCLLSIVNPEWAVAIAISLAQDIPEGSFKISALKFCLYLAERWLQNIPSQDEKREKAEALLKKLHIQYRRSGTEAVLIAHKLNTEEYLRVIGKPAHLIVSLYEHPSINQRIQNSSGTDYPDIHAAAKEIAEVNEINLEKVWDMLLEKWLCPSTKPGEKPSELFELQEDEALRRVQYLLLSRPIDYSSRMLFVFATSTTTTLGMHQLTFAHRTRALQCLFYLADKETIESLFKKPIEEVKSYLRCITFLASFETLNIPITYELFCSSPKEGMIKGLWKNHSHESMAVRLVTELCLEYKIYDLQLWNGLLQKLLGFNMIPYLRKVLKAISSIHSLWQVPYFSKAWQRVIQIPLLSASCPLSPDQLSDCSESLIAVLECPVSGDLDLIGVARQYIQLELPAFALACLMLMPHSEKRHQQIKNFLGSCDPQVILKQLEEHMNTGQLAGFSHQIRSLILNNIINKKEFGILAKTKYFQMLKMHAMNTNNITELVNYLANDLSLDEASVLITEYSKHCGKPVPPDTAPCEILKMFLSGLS

Residue numbers refer to the chain shown, from its start. No constants are given. Whether binding was seen depends on the method and setting. Some binding calls cover weakened binding; strength is not graded here. For some assays here: Tags and fused reporters may be left off the sequences shown.

In assay [1] the target is T1, GST-BUB1^467-521 F500A-E501A (human) (UniProt O43683).
T1 sequence: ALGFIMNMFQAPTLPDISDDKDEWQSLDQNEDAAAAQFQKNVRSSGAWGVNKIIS
The experiment in a line: SEC; analytical SEC on Superose 6 15/50 at 4°C; 50 mM Hepes pH 8.0, 100 mM NaCl, 1 mM TCEP; proteins mixed and incubated 16 hours at 10°C; both purified. In general terms: SEC sorts molecules by how far they enter the pores of the column.

The target in assay [2] is T2, GST-BUB1^467-521 F475A-P478R-F500A-E501A (human) (UniProt O43683).
T2 sequence: T1 sequence with F9A, P12R
The assay is described as above.

Assay [3] deals with BUBR1:BUB3 complex (UniProt O60566). Described as above.
For assay [4], the target named is T3, GST-BUB1^467-521 F475A-F500A-E501A (human) (UniProt O43683).
T3 sequence: T1 sequence with F9A
The description is as above.

Assay [5] concerns the target T1, GST-BUB1^467-521 F500A-E501A (human). The experiment in a line: pull-down; GST-BUB1 baits on GSH beads, no phosphorylation step; 50 mM Hepes pH 8.0, 100 mM NaCl, 1 mM TCEP; beads 2 hours at 4°C; SDS-PAGE, Coomassie or in-gel fluorescence; both purified.
The target of assay [6] is T4, GST-BUB1^477-521 (human) (UniProt O43683).
T4 sequence: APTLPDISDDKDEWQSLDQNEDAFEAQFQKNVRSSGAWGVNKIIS
The assay is described as above.

Assay [7] addresses T2, GST-BUB1^467-521 F475A-P478R-F500A-E501A (human). The description is as above.
Assay [8] deals with T3, GST-BUB1^467-521 F475A-F500A-E501A (human). The description is as above.

With “mCherry-tagged ROD-Zwilch-ZW10 (RZZ) complex, wild type (from UniProt P50748 1-2209; Q9H900 1-591; O43264 1-779)”, the binding entry is “no binding” in assay [1]; “no binding” in assay [2]; “no binding” in assay [3]; “no binding” in assay [4]; “no binding” in assay [5]; “binds weakly” in assay [6]. Besides, the binding entry in assay [7] and in assay [8] was “no binding” each time.
